Values joined by “and” are separate entries in the source; they are usually repeats but may differ in a detail not shown here. Identical values can stand only once. The whole screen tested about 110,000 compounds, of which about 230 (0.21%) showed an effect of 50% or more. Some of the results follow.
What follows are compounds tested against DPAP1 (Plasmodium falciparum, UniProt Q8IIJ9) (assay: primary screen, percent inhibition; read by cleavage of a fluorogenic dipeptide substrate; higher = more effect of the substance).
Sequence of DPAP1 (Q8IIJ9 whole entry, looked up): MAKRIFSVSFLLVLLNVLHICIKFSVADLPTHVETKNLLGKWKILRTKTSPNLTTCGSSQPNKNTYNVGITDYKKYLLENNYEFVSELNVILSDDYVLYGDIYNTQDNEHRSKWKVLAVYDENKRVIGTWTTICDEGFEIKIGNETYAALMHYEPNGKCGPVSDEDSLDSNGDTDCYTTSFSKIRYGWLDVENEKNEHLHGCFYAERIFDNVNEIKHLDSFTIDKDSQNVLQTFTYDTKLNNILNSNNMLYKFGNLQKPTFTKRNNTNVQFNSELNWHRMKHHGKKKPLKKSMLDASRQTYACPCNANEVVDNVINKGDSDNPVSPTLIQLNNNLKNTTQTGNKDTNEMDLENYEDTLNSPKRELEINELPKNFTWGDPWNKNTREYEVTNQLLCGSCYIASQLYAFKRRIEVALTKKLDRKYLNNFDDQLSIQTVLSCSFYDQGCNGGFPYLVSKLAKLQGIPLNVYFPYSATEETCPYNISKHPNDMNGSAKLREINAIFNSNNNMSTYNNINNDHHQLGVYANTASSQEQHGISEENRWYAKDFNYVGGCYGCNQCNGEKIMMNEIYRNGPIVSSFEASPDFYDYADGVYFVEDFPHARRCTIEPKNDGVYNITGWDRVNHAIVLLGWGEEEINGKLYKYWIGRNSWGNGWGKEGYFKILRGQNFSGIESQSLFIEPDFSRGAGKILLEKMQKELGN
Design: species or system P. falciparum D10 trophozoite lysates; single well
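Also: 30 min substrate incubation versus DMSO and 10 µM JCP410 controls.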

Row | Structure (SMILES) | % Inhibition @ 10 uM
1 | COc1ccc(C(=O)N2CCN(Cc3ccc(Br)cc3)CC2)cc1 | 6.24%
2 | CCOC(=O)C1CCN(Cc2ccccc2F)CC1 | -1.92%
3 | O=C(OCCCNC1=NS(=O)(=O)c2ccccc21)c1ccc(S(=O)(=O)N2CCCCC2)cc1 | 4.54%
4 | Clc1ccc(-c2ncnn2-c2ccc(Br)cn2)c(Cl)c1 | 2.65%
5 | COc1ccc(-c2cn3nc(N4CCCC(C(=O)NCc5ccco5)C4)sc3n2)cc1 (stereo not drawn) | 3.7%
6 | Cc1ccc(Cn2c(S)nc3c2c(=O)n(C)c(=O)n3C)cc1 | 1.8%
7 | COc1ccc(CCCC(=O)O)c2ccccc12 | -1.79%
8 | COc1ccccc1CN1COc2c(cc3c4c(c(=O)oc3c2C)CCC4)C1 | -4.39%
9 | C1=C(c2ccc3c(c2)c2c4n3CCN(Cc3ccccc3)C4CCC2)C2CCN1CC2 (stereo not drawn) | 70.5%
10 | c1ccc(-n2nnnc2SCCNCc2cccs2)cc1 | 2.25%
11 | c1ccc(-c2nc(C34CC5CC(CC(C5)C3)C4)co2)cc1 | -4.27%
12 | Cc1c(C(=O)N2CCOCC2)[nH]c2ccc(OCc3ccccc3)cc12 | -1.36%
13 | COc1ccccc1OCC(=O)Nc1nonc1NC(=O)COc1ccccc1OC | -10.6%
14 | N#CCNC(=O)C(CC1CCCCC1)C(=O)Nc1ccc(C(N)=O)cc1 (stereo not drawn) | -5.21%
15 | O=C(CC(c1ccccc1)c1ccccc1)Nc1ccccn1 | -7.3%
16 | O=C(NCc1cccn1Cc1ccccc1)NC1CCCC1 | -0.0894%
17 | c1ccc2c(c1)-c1ccccc1C2N1CCNCC1 | -3.77%
18 | CC1CCN(C2CCN(CCc3ccccc3)CC2)CC1 | -4.01%
19 | CSC1=C(C#N)C(c2ccc(Cl)cc2)CC(=O)N1 (stereo not drawn) | 0.912%
20 | COc1ccc(CCNC(=O)c2cc3c(=O)oc4ccccc4c3s2)cc1OC | 0.121%
21 | c1ccc2c3c(c(CN4CCOCC4)cc2c1)COC3 | -2.6%
22 | COc1cc(/C=C2/C=C(c3ccc(C(C)C)cc3)OC2=O)cc(OC)c1OC | -3.74%

Row | Structure (SMILES) | % Inhibition @ 10 uM
23 | CCC(=O)Nc1cc2nn(-c3ccc(C)cc3)nc2cc1Cl | 1.35%
24 | Clc1ccccc1OCCCCCCN1CCCCC1 | -5.84%
25 | Cc1ccc(CNC(=O)/C=C/C(=O)O)cc1 | 1.42%
26 | COc1ccc(CN2CCSCC2)c(OC)c1OC | -1.92%
27 | Cc1nnc2sc(-c3ccc(Cl)cc3)cc(=O)n12 | -4.73%
28 | COc1ccc(Cc2nc3c4cnn(-c5ccccc5F)c4ncn3n2)cc1OC | -6.5%
29 | Cc1nn(CC(=O)NCC(C)c2ccccc2)c(=O)c2cc3cc(F)ccc3n12 (stereo not drawn) | 1.68%
30 | CCCCCC(=O)NCCCCC(=O)O | -4.24%
31 | CNC(=O)c1[nH]c2cc(OC)ccc2c1Sc1ccc(C)cc1 | -2.96%
32 | Cc1ccc(NC(=O)CN2C(=O)C3C4CCC(C4)C3C2=O)cc1 (stereo not drawn) | -9.4%
33 | CCOC(=O)c1c(NC(=O)c2ccc(C)cc2)sc(C(=O)NC2CCCCC2)c1C | 5.44%
34 | COc1ccc(N2CCN(Cc3cccc(Br)c3)CC2)cc1 | -2.7%
35 | NC(=O)c1c(NC(=O)COc2ccccc2)sc2c1CCCCC2 | 1.88%
36 | NC(=O)c1ccc(NC(=O)CN2CCN(Cc3ccccc3)CC2)cc1 | -6.57%
37 | COc1ccc(NC(=O)CSc2nc(-c3ccc4c(c3)OCO4)ccc2C#N)cc1OC | -4.61%
38 | COc1ccc(N2CCN(C(=O)c3cc(C(F)(F)F)[nH]n3)CC2)cc1 | -3.72%
39 | Cc1oc(C(=O)N2CCCC2C(=O)O)cc1COc1ccc2oc3ccccc3c2c1 (stereo not drawn) | 5.87% and 5.72%
40 | COc1ccc(-n2c(C)nc3cc(C(=O)N4CCOCC4)ccc32)cc1 | -2.17%
41 | Oc1cc(C(F)(F)C(F)(F)C(F)(F)C(F)(F)F)nn1-c1ccccc1 | 0.0719%
42 | CC(C)C[C@H](NC(=O)c1ccc(-c2csc(Nc3ccccn3)n2)cc1)C(=O)NCC#N | -2.35%
43 | COc1ccc(CC(=O)NCc2nc(-c3ccc(Cl)cc3)no2)cc1OC | -4.82%
44 | CC(C)NC(=O)/C=C/c1ccccc1Cl | -1.62%

Row | Structure (SMILES) | % Inhibition @ 10 uM
45 | OCCNc1nc(N2CCN(Cc3ccccc3)CC2)nc2ccccc12 | -1.82%
46 | CC1CN(C)CCC1(O)c1ccccc1 (stereo not drawn) | -3.82%
47 | COc1cccc(NC(=O)CCC(=O)O)c1 | 0.878%
48 | CCCCC(=O)Nc1ccc(-c2cn3ccsc3n2)cc1 | 4.67%
49 | CCOC(=O)N1CCC(NC(=O)c2cnn(-c3ccc(C)c(C)c3)c2C2CCNCC2)CC1 | -2.71%
50 | CC1CCCC(NC(=O)CCCn2c(=O)c3cccn3c3cccnc32)C1C (stereo not drawn) | 1.5%
51 | O=C(CCSc1nccn1Cc1ccccc1)Nc1ccc(Cl)cc1 | 1.42%
52 | CC(C)(O)C(C)(C)C(OC(=O)c1ccccc1)c1ccccc1 (stereo not drawn) | 0.847%
53 | Cc1[nH]cnc1CN1CCCCCC1 | -6.85%
54 | O=C(O)c1ccc(N2C(=O)c3ccccc3C2=O)cc1[N+](=O)[O-] | 3.47%
55 | CC1(C)CC(=O)C(c2nc3cc(C(=O)c4ccccc4)ccc3[nH]2)=C(O)C1 | 4.61%
56 | O=C(NCc1ccc2c(c1)OCO2)c1ccc(COc2cccc(Cl)c2)o1 | -3.13%
57 | OC(CNC1CCCCC1)Cn1c2ccc(Cl)cc2c2cc(Cl)ccc21 (stereo not drawn) | -5.16%
58 | Cc1ccc(NC(=O)c2ccc(Cl)c(Cl)c2)cc1O | 1.39%
59 | CC(=O)N(C)c1ccc(NC(=O)c2ccc(-c3ccccc3)cc2)cc1 | 1.63%
60 | CCN1CCN(C(=O)C2CCN(Cc3nc(-c4cccc(Cl)c4)oc3C)CC2)CC1 | 0.475%
61 | COC(=O)c1cc(-c2ccc(OCc3ccccc3)c(OC)c2)no1 | 22.9%
62 | CCCn1c2ccccc2c2cnn(CC(=O)NCCc3ccc(Cl)cc3)c(=O)c21 | 0.721%
63 | c1ccc(CCC2=NCCn3cccc32)cc1 | -3.65%
64 | O=C(Nc1cccc([N+](=O)[O-])c1)c1cccc([N+](=O)[O-])c1 | 1.54%
65 | O=C(CCCC(=O)c1ccccc1)NCc1cccc2ccccc12 | -3.44%
66 | O=C(CCCCCN1C(=O)c2ccccc2C1=O)Nc1cccc(Cl)c1 | 4.88%

Source: article PMC6919601, “Identification of Plasmodium dipeptidyl aminopeptidase allosteric inhibitors by high throughput screening” (PLoS ONE, 2019)
